The values below are quoted from earlier work in publication PMC6318274, “Lattice engineering enables definition of molecular features allowing for potent small-molecule inhibition of HIV-1 entry” (Nature Communications, 2019).

As usually defined, the IC50 is the concentration needed to halve the response being measured.

The data set relates to HIV-1 Env-pseudoviruses (208-strain panel). The settings on record: BG505.W6M.C2, clade A; cited from earlier work.

`COc1cnc(-n2cnc(C)n2)c2[nH]cc(C(=O)C(=O)N3CCN(C(=O)c4ccccc4)CC3)c12` [BMS-626529]: the IC50 was 9 nM.
